Columns and labels:
Edg-3 receptor mRNA = test: Effect of apoptotic stimuli on Edg-3 receptor mRNA expression in Tsup-1 cells (radioactive RT-PCR); conditions: 16 h with apoptotic stimulus (30 ng anti-Fas; 0.2 ug anti-CD2; 0.5 ug each anti-CD3 and anti-CD28; 5 uM C6 ceramide)
Method: (§1) The methodology employed is more fully described in Goetzl et al., J. Immunol (1999), supra. Briefly, total cellular RNA was extracted from suspensions of Tsup-1 cells by the TRlzol method (Gibco-BRL, Grand Island, N.Y.), and a Superscript kit (Gibco-BRL) was used for reverse transcription (RT) synthesis of cDNAs. Polymerase chain reaction (PCR) began with a “hot start” at 94° C. for 3 min, Taq DNA polymerase was added and amplification was carried out with 35 cycles of 30 s at 94° C., 2 min at 55° C. and 1 min at 72° C. Two uCi of [alpha-^32P] dCTP were added to some sets of reaction mixtures to allow quantification of mRNA encoding each Edg receptor relative to that of the standard G3PDH. Kaltreider et al., Am J. Resp. Cell. Mol. Biol. 16:133 (1996).
(§2) Oligonucleotide primer pairs were: 5′-d[…] AAC (SEQ ID NO: 14) and 5′-d[…] (SEQ ID NO: 15) for G3PDH; 5′-[…] (SEQ ID NO: 16) and 5′-[…] (SEQ ID NO: 17) for Edg-1 (1100 bp); 5′-d[…] (SEQ ID NO: 18) and 5′-GTGGTC […] (SEQ ID NO: 19) for Edg-2 (621 bp); 5′-dCAAAATG […] (SEQ ID NO: 20) and 5′-d[…] CGTTC (SEQ ID NO: 21) for Edg-3 (701 bp); 5′-d[…] CGT (SEQ ID NO: 22) and 5′-d[…] […]
(§3) PCR products were resolved by electrophoresis in a 2 g/100 ml agarose gel with ethidium bromide staining. […] Relative quantities of cDNA encoding each Edg receptor also were calculated by the ratio of radioactivity to that in the corresponding G3PDH band. […]

Edg-4 receptor mRNA = test: Effect of apoptotic stimuli on Edg-4 receptor mRNA expression in Tsup-1 cells (radioactive RT-PCR); conditions: 16 h with apoptotic stimulus (30 ng anti-Fas; 0.5 ug each anti-CD3 and anti-CD28; 5 uM C6 ceramide)
Method: as §1, §2, §3

Edg-2 receptor mRNA = test: Effect of apoptotic stimuli on Edg-2 receptor mRNA expression in Tsup-1 cells (radioactive RT-PCR); conditions: 16 h with apoptotic stimulus (30 ng anti-Fas; 0.2 ug anti-CD2; 0.5 ug each anti-CD3 and anti-CD28; 5 uM C6 ceramide)
Method: as §1, §2, §3

## CCCCCCCCCCCCC/C=C/[C@@H](O)[C@H](CO)NC(=O)CCCCC [C6-Ceramide, C6 ceramide]
Edg-3 receptor mRNA
  ratio of 32P in the Edg-3 receptor cDNA band to that in the G3PDH band: 0.17
Edg-4 receptor mRNA
  ratio of 32P in the Edg-4 receptor cDNA band to that in the G3PDH band: 0.12
Edg-2 receptor mRNA
  ratio of 32P in the Edg-2 receptor cDNA band to that in the G3PDH band: 0.05

— patent publication US6812335B1, “Human polypeptide receptors for lysophospholipids and sphingolipids and nucleic acids encoding the same” (The Regents of the University of California, priority 1999, dated 2004)
